Measured values as given in PMC3271066.
Changes are numbered by the printed parent chain. Names and notes keep the numbering of the source. No constants are given. Whether binding was seen depends on the method and setting. For part of these data: In cells and extracts the contact can be indirect. Some entries that bind do so weakly or less than the wild type. Tags and fused reporters may be left off the sequences shown.

Key:
[1] = target: T1, Raf2-TAP (S. pombe), O74560; assay: co-IP; TAP-tagged bait on Dynabeads coupled to IgG, S. pombe lysate (50 mM Hepes pH7.5, 150 mM KCl, 0.1% NP40), Western with anti-FLAG; raf1-1 panel from cells grown at 36°C; conditions: remark: other sources report otherwise
T1 chain: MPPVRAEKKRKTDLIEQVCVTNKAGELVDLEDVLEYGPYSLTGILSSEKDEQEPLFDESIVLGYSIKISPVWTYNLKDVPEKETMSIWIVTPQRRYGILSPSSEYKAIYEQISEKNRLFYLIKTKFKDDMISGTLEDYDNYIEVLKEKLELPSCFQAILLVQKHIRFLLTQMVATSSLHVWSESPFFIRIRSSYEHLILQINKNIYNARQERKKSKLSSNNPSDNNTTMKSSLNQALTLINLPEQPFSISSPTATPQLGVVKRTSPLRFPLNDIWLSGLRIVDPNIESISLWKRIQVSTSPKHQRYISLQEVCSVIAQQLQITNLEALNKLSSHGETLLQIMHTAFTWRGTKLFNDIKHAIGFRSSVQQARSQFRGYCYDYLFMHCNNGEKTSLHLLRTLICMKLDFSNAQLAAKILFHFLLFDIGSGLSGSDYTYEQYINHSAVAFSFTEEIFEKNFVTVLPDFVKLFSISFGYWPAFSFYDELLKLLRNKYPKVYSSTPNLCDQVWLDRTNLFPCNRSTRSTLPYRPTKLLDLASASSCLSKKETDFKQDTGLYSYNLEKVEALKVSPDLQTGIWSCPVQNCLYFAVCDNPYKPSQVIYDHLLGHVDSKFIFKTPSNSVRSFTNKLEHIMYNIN

Raf2-TAP (S. pombe) = target: T2, Raf2-TAP (S. pombe) (UniProt O74560); assay: as above
T2 sequence: T1 chain

FLAG-Raf1 (S. pombe) = target: T3, FLAG-Raf1 (S. pombe) (UniProt O74910); assay: co-IP; anti-FLAG M2 on proteinG Dynabeads, 1 hr, S. pombe lysate (50 mM Hepes pH7.5, 150 mM KCl, 0.1% NP40), four washes, Western with anti-FLAG and anti-myc; raf1-1 panels and their wild type from cells grown at 36°C
T3 sequence: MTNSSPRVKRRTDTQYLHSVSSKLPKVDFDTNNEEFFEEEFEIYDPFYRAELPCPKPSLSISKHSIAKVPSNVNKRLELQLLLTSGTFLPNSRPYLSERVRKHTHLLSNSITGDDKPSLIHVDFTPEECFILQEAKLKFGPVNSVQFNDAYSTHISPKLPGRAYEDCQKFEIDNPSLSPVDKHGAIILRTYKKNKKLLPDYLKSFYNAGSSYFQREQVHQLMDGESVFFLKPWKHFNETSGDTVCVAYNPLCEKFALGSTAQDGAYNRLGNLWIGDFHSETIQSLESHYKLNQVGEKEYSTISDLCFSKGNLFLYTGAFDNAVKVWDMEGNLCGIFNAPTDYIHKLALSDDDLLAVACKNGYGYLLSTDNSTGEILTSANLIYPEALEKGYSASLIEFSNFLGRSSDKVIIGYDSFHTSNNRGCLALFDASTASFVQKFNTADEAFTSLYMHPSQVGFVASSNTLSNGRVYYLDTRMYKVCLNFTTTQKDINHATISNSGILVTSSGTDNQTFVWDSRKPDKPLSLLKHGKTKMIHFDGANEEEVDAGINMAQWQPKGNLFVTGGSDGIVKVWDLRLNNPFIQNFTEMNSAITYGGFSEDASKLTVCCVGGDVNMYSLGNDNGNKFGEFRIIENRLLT

[2] = target: T4, Rik1 (two-hybrid fusion) (S. pombe) (UniProt Q10426); assay: two-hybrid; yeast two-hybrid, GAL4 Binding and Activation Domain fusions, growth on -Leu, -Trp, -His, -Ade plates
T4 sequence: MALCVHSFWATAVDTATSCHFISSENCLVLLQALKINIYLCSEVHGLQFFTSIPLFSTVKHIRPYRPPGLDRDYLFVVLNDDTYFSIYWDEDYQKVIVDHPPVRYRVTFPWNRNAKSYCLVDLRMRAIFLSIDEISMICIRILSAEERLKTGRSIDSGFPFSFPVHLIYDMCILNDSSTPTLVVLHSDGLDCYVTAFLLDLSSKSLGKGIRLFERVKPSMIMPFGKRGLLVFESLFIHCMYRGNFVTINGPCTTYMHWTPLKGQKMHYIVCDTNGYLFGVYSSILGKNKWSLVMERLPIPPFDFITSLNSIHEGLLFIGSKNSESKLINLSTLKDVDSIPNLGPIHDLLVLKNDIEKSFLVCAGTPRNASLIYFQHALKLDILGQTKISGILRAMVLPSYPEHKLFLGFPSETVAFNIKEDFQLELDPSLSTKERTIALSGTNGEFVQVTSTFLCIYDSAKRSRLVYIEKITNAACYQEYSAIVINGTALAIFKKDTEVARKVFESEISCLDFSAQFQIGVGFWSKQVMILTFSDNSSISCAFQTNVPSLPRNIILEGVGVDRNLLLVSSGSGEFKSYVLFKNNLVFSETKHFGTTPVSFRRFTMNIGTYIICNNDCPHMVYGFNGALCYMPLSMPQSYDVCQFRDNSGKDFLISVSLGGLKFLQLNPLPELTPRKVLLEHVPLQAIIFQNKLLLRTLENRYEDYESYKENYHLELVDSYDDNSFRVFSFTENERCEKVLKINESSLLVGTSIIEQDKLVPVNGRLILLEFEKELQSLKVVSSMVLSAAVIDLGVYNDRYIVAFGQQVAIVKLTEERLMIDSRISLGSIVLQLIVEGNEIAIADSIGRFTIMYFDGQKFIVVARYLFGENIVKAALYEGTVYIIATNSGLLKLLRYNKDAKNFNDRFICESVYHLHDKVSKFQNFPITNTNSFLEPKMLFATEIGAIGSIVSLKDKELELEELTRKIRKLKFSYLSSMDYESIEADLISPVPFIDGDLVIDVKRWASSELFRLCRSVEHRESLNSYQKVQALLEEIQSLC

B1: FLAG-Raf1, O74910 1-638 (protein)
chain: T3 sequence
Question: Which binding [1] does the source give for B1 here?
Answer: binds

B2: FLAG-Raf1-1 (protein, UniProt O74910 1-638)
chain: T3 sequence with T495I
Question: B2 was tested. Which binding (Raf2-TAP (S. pombe)) did it give?
Answer: binds weakly

B3: FLAG-Raf1-R518A (protein, UniProt O74910 1-638)
chain: T3 sequence with R518A
Question: With B3 as the binder, how does the binding (Raf2-TAP (S. pombe)) read?
Answer: binds weakly

B4: Rik1-Myc (protein, UniProt Q10426 1-1040)
chain: T4 sequence
Question: Which binding (FLAG-Raf1 (S. pombe)) does the source give for B4 here?
Answer: binds

B5: Raf1 (two-hybrid fusion) (protein, UniProt O74910 1-638)
chain: T3 sequence
Question: For B5, which binding [2] is on record?
Answer: binds

B6: FLAG-Raf1-R576A (protein, UniProt O74910 1-638)
chain: T3 sequence with R576A
Question: Which binding (Raf2-TAP (S. pombe)) does the source give for B6 here?
Answer: no binding
